Assay results: the supplement of paper PMC7726561
The full ranking holds about 1,400 sequences; the median of “thermal melting temperature (Tm) of peptide-HLA complex” is about 60, and the lowest 2% start at about 45. The list shows a part of the results.

The sequences below were run against HLA-B*07:02 (assay: thermal melting temperature (Tm) of peptide-HLA complex; higher = more thermostable pHLA complex). Conditions: C1R-B*07:02.
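Further: cell lysates heated 10 min at 37–73 °C, remaining pHLA pulled down with pan-class I antibody, peptides quantified by DIA-MS versus 37 °C, Tm where half the complex is lost.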

Sequence | thermal melting temperature [°C]
RPPSFTPHTL | 58.7
RPKPPSATSI | 58.2
IPYTGPFNLL | 60.7
VPRIQPQSL | 60.4
YPMPELGRAL | 61.7
SPFNDRFPL | 62.2
APRTVLLLLSA | 62.3
IPRPGEVLGL | 61.5
FPMGDRLYI | 63
IPWTPPGTAL | 61.6
IPNWARQDL | 62
KPAPPFNVTV | 61.7
GPHVPFTVF | 62.3
KPGMKLTEL | 46.7
YPPNPWREI | 59.3
YPRTGGTL | 55.6
APRVLQQTL | 61.2
MPKLRVLEL | 57.1
RPALPGLAR | 62.5

Sequence | thermal melting temperature [°C]
LPGLRDLVL | 61.7
LPKATILDL | 61.6
YPFKPPKVAF | 58.5
SPLNRAGLL | 59.8
HPNSNLLDL | 58.7
AARPVPWNAL | 59.2
GPLGSTIPM | 61.6
FPQMGRFTL | 57.4
APVAPHFAL | 62.1
SPASRSISL | 61
RPAPAAPLL | 61.1
KPRDVSSVEL | 59.8
RPAPLVQQL | 58.3
SPYFQRPLAL | 60.8
VPVGPHLSL | 60.8
SPKSPTAAL | 60.1
IPRGADNLVAI | 61.8
RPAQVSQPF | 60.2
APKPGGLSL | 61.7

Sequence | thermal melting temperature [°C]
APRFSSAVGL | 61.7
RPPEVILEL | 62.1
IPRLIVSQL | 62.5
VPRPPSLLATL | 62.9
LPSNARGPIL | 56.6
LPSKPYSTL | 59.2
QPYAFTTKSL | 57.6
APRVLSFSL | 62
IPALRDISI | 62.6
KPASFMTSI | 59.7
APAELKSPF | 60.7
RPYSQVNVL | 59.8
SPTKLDVTL | 54.9
KPGDFIHTL | 55.6
SPFLKGFL | 62.6
VPLPRLLEV | 61.8
LPRAPGQAP | 57.1
RPIESPGGSVL | 45.3
